This is one part of the list. The full chains were built here from the parent and the listed change. Inactive controls read about 0.05.
B1: TEV protease; numbered along this chain (parent)
chain: MGESLFKGPRDYNPISSSICHLTNESDGHTTSLYGIGFGPFIITNKHLFRRNNGTLVVQSLHGVFKVKDTTTLQQHLVDGRDMIIIRMPKDFPPFPQKLKFREPQREERICLVTTNFQTKSMSSMVSDTSCTFPSGDGIFWKHWIQTKDGQCGSPLVSTRDGFIVGIHSASNFTNTNNYFTSVPKNFMELLTNQEAQQWVSGWRLNADSVLWGGHKVFMVKPEEPFQPVKEATQL

Variants of: B1
Experiment: raw area under fraction-flipped curve 0-4 h after induction (AUC4h, not background-subtracted), DNA-recorder readout of cleavage of the substrate (dimensionless); higher = more cleavage of the substrate by the protease variant
Conditions: temperature: 34 °C; time window: 0-4 h after rhamnose induction
Method: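 In vivo DNA recorder in E. coli TOP10(DE3) ΔrhaA at 34 °C. Each TEVp single-site mutant (parent TEVp 0) is paired with a single-site variant of the 7-mer TEVs (canonical ENLYFQ|S). The substrate sits between flexible linkers in a Bxb1-sfGFP-TEVs-SsrA fusion, so cleavage stabilises Bxb1 and speeds flipping of a recombination array, read by NGS. The value is the raw area under the fraction-flipped curve over 0-4 h after rhamnose induction (AUC4h), with ≥20 reads per time point. It is not background-subtracted; inactive controls average about 0.047.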
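Note: Bxb1 expression induced with 0.2% (w/v) L-rhamnose at OD600 near 0.5, cultures sampled hourly, flipped fraction per protease–substrate barcode pair counted by paired-end Illumina sequencing.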

With D137N the “area with substrate ENLAFQS” value was 0.0794, the “area with substrate ENLCFQS” value was 0.0688 and the “area with substrate ENLDFQS” value was 0.0466. For the same variant, the “area with substrate ENLEFQS” value was 0.0936, the “area with substrate ENLFFQS” value was 0.0901 and the “area with substrate ENLHFQS” value was 0.08. The “area with substrate ENLIFQS” value was 0.0881, the “area with substrate ENLKFQS” value was 0.0773 and the “area with substrate ENLLFQS” value was 0.0619. The “area with substrate ENLMFQS” value was 0.0627, the “area with substrate ENLNFQS” value was 0.0672 and the “area with substrate ENLPFQS” value was 0.0708. The “area with substrate ENLQFQS” value was 0.072, the “area with substrate ENLRFQS” value was 0.0692 and the “area with substrate ENLSFQS” value was 0.0646. The “area with substrate ENLWFQS” value was 0.0662.

With D137L the “area with substrate ENLAFQS” value was 0.087, the “area with substrate ENLCFQS” value was 0.0819 and the “area with substrate ENLEFQS” value was 0.0749. For the same variant, the “area with substrate ENLFFQS” value was 0.0796, the “area with substrate ENLIFQS” value was 0.074 and the “area with substrate ENLKFQS” value was 0.0835. The “area with substrate ENLNFQS” value was 0.0757, the “area with substrate ENLPFQS” value was 0.0721 and the “area with substrate ENLRFQS” value was 0.0593. The “area with substrate ENLSFQS” value was 0.0654, the “area with substrate ENLTFQS” value was 0.067 and the “area with substrate ENLVFQS” value was 0.0843.

With S123M the “area with substrate ENLAFQS” value was 0.0627, the “area with substrate ENLCFQS” value was 0.0746 and the “area with substrate ENLDFQS” value was 0.0739. The “area with substrate ENLEFQS” value was 0.0653, the “area with substrate ENLFFQS” value was 0.0947 and the “area with substrate ENLIFQS” value was 0.0842. The “area with substrate ENLKFQS” value was 0.0791, the “area with substrate ENLLFQS” value was 0.0616 and the “area with substrate ENLNFQS” value was 0.0693. The “area with substrate ENLPFQS” value was 0.0616, the “area with substrate ENLRFQS” value was 0.088 and the “area with substrate ENLSFQS” value was 0.0729. For the same variant, the “area with substrate ENLWFQS” value was 0.0652.

In the case of S127D, the “area with substrate ENLAFQS” value is reported as 0.0758, the “area with substrate ENLCFQS” value is reported as 0.0694 and the “area with substrate ENLDFQS” value is reported as 0.058. For the same variant, the “area with substrate ENLEFQS” value was 0.0649, the “area with substrate ENLFFQS” value was 0.0786 and the “area with substrate ENLHFQS” value was 0.0561. For the same variant, the “area with substrate ENLIFQS” value was 0.0791, the “area with substrate ENLKFQS” value was 0.0773 and the “area with substrate ENLLFQS” value was 0.0781. For the same variant, the “area with substrate ENLNFQS” value was 0.0732, the “area with substrate ENLPFQS” value was 0.0755 and the “area with substrate ENLQFQS” value was 0.0754. The “area with substrate ENLRFQS” value was 0.069, the “area with substrate ENLTFQS” value was 0.0631 and the “area with substrate ENLVFQS” value was 0.073.

For S127P, the “area with substrate ENLAFQS” value was 0.072, the “area with substrate ENLCFQS” value was 0.0778 and the “area with substrate ENLDFQS” value was 0.0563. The “area with substrate ENLEFQS” value was 0.0606, the “area with substrate ENLFFQS” value was 0.0804 and the “area with substrate ENLGFQS” value was 0.069. For the same variant, the “area with substrate ENLHFQS” value was 0.0759, the “area with substrate ENLIFQS” value was 0.0637 and the “area with substrate ENLKFQS” value was 0.0913. For the same variant, the “area with substrate ENLLFQS” value was 0.0667, the “area with substrate ENLMFQS” value was 0.0655 and the “area with substrate ENLNFQS” value was 0.0636. The “area with substrate ENLPFQS” value was 0.0627, the “area with substrate ENLQFQS” value was 0.0681 and the “area with substrate ENLRFQS” value was 0.061. For the same variant, the “area with substrate ENLSFQS” value was 0.0716 and the “area with substrate ENLVFQS” value was 0.0659.

With Q118T the “area with substrate ENLAFQS” value was 0.081, the “area with substrate ENLDFQS” value was 0.105 and the “area with substrate ENLHFQS” value was 0.0772. For the same variant, the “area with substrate ENLKFQS” value was 0.0745, the “area with substrate ENLLFQS” value was 0.0347 and the “area with substrate ENLNFQS” value was 0.0583. The “area with substrate ENLQFQS” value was 0.0562, the “area with substrate ENLSFQS” value was 0.0625 and the “area with substrate ENLTFQS” value was 0.0712. For the same variant, the “area with substrate ENLWFQS” value was 0.0638.

For N116Q, the “area with substrate ENLAFQS” value was 0.0631, the “area with substrate ENLDFQS” value was 0.0662 and the “area with substrate ENLEFQS” value was 0.0899. The “area with substrate ENLFFQS” value was 0.0823, the “area with substrate ENLGFQS” value was 0.0674 and the “area with substrate ENLHFQS” value was 0.0617. The “area with substrate ENLIFQS” value was 0.0717, the “area with substrate ENLKFQS” value was 0.0741 and the “area with substrate ENLLFQS” value was 0.0527. For the same variant, the “area with substrate ENLNFQS” value was 0.0756, the “area with substrate ENLPFQS” value was 0.0673 and the “area with substrate ENLQFQS” value was 0.0613. For the same variant, the “area with substrate ENLRFQS” value was 0.0765, the “area with substrate ENLSFQS” value was 0.0696 and the “area with substrate ENLVFQS” value was 0.0855. For the same variant, the “area with substrate ENLWFQS” value was 0.0571.

In the case of N116D, the “area with substrate ENLAFQS” value is reported as 0.117, the “area with substrate ENLDFQS” value is reported as 0.0768 and the “area with substrate ENLEFQS” value is reported as 0.0331. The “area with substrate ENLFFQS” value was 0.0884, the “area with substrate ENLHFQS” value was 0.0593 and the “area with substrate ENLIFQS” value was 0.072. The “area with substrate ENLKFQS” value was 0.0879, the “area with substrate ENLNFQS” value was 0.0585 and the “area with substrate ENLPFQS” value was 0.065. The “area with substrate ENLQFQS” value was 0.0708, the “area with substrate ENLRFQS” value was 0.0685 and the “area with substrate ENLSFQS” value was 0.0533. The “area with substrate ENLVFQS” value was 0.0942.

For S135A, the “area with substrate ENLAFQS” value was 0.0625, the “area with substrate ENLCFQS” value was 0.056 and the “area with substrate ENLDFQS” value was 0.0578. The “area with substrate ENLEFQS” value was 0.0591, the “area with substrate ENLGFQS” value was 0.083 and the “area with substrate ENLHFQS” value was 0.0435. For the same variant, the “area with substrate ENLIFQS” value was 0.0592, the “area with substrate ENLKFQS” value was 0.0671 and the “area with substrate ENLLFQS” value was 0.069. The “area with substrate ENLMFQS” value was 0.0554, the “area with substrate ENLNFQS” value was 0.0692 and the “area with substrate ENLPFQS” value was 0.0623. For the same variant, the “area with substrate ENLRFQS” value was 0.0645, the “area with substrate ENLSFQS” value was 0.0603 and the “area with substrate ENLWFQS” value was 0.0506.

With F133E the “area with substrate ENLAFQS” value was 0.0524, the “area with substrate ENLCFQS” value was 0.0696 and the “area with substrate ENLDFQS” value was 0.0579. For the same variant, the “area with substrate ENLFFQS” value was 0.101, the “area with substrate ENLGFQS” value was 0.0694 and the “area with substrate ENLHFQS” value was 0.0708. The “area with substrate ENLIFQS” value was 0.111, the “area with substrate ENLKFQS” value was 0.0921 and the “area with substrate ENLLFQS” value was 0.0703. For the same variant, the “area with substrate ENLNFQS” value was 0.0558, the “area with substrate ENLPFQS” value was 0.0433 and the “area with substrate ENLRFQS” value was 0.088. The “area with substrate ENLSFQS” value was 0.0947, the “area with substrate ENLVFQS” value was 0.117 and the “area with substrate ENLWFQS” value was 0.0643.

In the case of F133N, the “area with substrate ENLAFQS” value is reported as 0.0826, the “area with substrate ENLDFQS” value is reported as 0.0578 and the “area with substrate ENLFFQS” value is reported as 0.082. The “area with substrate ENLGFQS” value was 0.0679, the “area with substrate ENLHFQS” value was 0.0705 and the “area with substrate ENLIFQS” value was 0.0766. For the same variant, the “area with substrate ENLKFQS” value was 0.0949, the “area with substrate ENLLFQS” value was 0.0955 and the “area with substrate ENLMFQS” value was 0.0683. For the same variant, the “area with substrate ENLNFQS” value was 0.0673, the “area with substrate ENLPFQS” value was 0.0601 and the “area with substrate ENLSFQS” value was 0.066.

In the case of C111Y, the “area with substrate ENLAFQS” value is reported as 0.0683, the “area with substrate ENLCFQS” value is reported as 0.136 and the “area with substrate ENLDFQS” value is reported as 0.0553. The “area with substrate ENLEFQS” value was 0.0603, the “area with substrate ENLFFQS” value was 0.094 and the “area with substrate ENLGFQS” value was 0.0595. For the same variant, the “area with substrate ENLIFQS” value was 0.0624, the “area with substrate ENLKFQS” value was 0.0811 and the “area with substrate ENLLFQS” value was 0.0773. For the same variant, the “area with substrate ENLNFQS” value was 0.0689, the “area with substrate ENLRFQS” value was 0.0624 and the “area with substrate ENLSFQS” value was 0.0474. For the same variant, the “area with substrate ENLWFQS” value was 0.0685.

For V113P, the “area with substrate ENLAFQS” value was 0.0512, the “area with substrate ENLCFQS” value was 0.0669 and the “area with substrate ENLDFQS” value was 0.0543. The “area with substrate ENLEFQS” value was 0.0546, the “area with substrate ENLFFQS” value was 0.0621 and the “area with substrate ENLHFQS” value was 0.0631. The “area with substrate ENLIFQS” value was 0.0601, the “area with substrate ENLKFQS” value was 0.0627 and the “area with substrate ENLLFQS” value was 0.0605. The “area with substrate ENLMFQS” value was 0.0381, the “area with substrate ENLNFQS” value was 0.0431 and the “area with substrate ENLPFQS” value was 0.05. The “area with substrate ENLQFQS” value was 0.0605, the “area with substrate ENLRFQS” value was 0.0754 and the “area with substrate ENLTFQS” value was 0.0549.

From the supplement of paper PMC12217912
